Screen size: about 220,000 compounds; about 5,700 (2.6%) were called active. Inconclusive means that the source gave no clear call. Such entries were picked first, then a sample of the others. Calls follow the shape of the dose curve; as a rule, active = well fitted inhibition curve with a large enough effect; inconclusive = small, poorly fitted or top-dose-only effect; inactive = no such curve, though single readings can be large or run the other way. Potencies beside an inconclusive call are fits to weak or partial responses and may not hold up.
Each molecule was assayed against Lysine-specific demethylase 5B (Homo sapiens) (UniProt Q9UGL1) (assay: Primary screen for KDM5B Histone Demethylases FDH-coupled qHTS). Settings: FDH-coupled NADH fluorescence (FDH is formaldehyde dehydrogenase); activity change, negative = inhibition: at 57.7 µM (top of the series) unless noted.
UniProt Q9UGL1, sequence (Q9UGL1 whole entry, looked up): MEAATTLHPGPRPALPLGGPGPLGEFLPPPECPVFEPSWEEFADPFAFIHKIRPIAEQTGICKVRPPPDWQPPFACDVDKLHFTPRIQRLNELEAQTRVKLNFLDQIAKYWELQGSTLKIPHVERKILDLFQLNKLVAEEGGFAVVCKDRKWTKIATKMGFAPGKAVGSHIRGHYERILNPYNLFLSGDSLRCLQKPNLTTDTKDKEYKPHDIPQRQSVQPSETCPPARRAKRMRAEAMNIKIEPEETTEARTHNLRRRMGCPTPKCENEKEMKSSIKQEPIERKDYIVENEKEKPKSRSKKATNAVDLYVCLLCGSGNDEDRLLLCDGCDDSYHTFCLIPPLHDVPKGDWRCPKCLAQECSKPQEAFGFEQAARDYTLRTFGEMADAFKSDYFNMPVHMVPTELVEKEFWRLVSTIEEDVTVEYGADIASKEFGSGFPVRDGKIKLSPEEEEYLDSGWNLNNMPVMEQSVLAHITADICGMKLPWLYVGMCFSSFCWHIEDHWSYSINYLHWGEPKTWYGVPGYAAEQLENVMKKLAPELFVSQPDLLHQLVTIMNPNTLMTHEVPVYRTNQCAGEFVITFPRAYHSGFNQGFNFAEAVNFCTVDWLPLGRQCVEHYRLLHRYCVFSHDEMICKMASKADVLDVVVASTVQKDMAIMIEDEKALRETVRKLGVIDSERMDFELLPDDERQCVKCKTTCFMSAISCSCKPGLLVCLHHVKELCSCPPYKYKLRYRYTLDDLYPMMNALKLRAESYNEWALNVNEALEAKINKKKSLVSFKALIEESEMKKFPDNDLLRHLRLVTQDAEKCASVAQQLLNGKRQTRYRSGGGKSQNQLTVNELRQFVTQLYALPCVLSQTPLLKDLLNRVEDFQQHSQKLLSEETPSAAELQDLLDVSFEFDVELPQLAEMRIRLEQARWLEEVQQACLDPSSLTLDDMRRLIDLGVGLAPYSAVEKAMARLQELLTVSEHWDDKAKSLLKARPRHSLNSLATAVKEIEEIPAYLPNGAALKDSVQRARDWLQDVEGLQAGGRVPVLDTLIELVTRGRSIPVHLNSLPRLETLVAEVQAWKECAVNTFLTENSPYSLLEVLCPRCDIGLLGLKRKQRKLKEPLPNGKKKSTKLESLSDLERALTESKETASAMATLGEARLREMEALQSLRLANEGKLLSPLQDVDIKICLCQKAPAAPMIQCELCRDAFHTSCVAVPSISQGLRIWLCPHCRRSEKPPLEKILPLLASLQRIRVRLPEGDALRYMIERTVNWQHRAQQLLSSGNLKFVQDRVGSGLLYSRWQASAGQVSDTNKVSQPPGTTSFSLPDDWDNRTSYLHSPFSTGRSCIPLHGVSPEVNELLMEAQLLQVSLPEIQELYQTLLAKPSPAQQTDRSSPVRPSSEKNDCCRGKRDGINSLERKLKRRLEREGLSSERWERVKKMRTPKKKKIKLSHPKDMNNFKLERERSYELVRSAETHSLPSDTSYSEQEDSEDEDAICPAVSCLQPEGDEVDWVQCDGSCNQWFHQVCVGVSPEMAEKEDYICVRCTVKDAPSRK
Method in brief: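 Compound dilutions met 200 nM (final) KDM5BΔAP for 10 min at room temperature before substrate addition. The substrate mix held 12.5 µM H3K4me3 with cofactors 25 µM α-ketoglutarate and 50 µM Fe²⁺. NADH signal gain over 30 min defined activity.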
With `Cc1ccc(-c2cc(C(F)(F)C(F)F)[nH]n2)cc1` the “activity change, negative = inhibition” value was inactive: 14.5%.
In the case of `c1coc(-c2nc3nccc(-c4ccc5c(c4)OCCCO5)n3n2)c1`, the Potency is reported as active: 28.2 µM.
With `COc1ccc(CCNC(=O)Cn2c(=O)cc(C(F)(F)F)c3c(C)nn(C)c32)c(OC)c1` the Potency was inconclusive: 3.16 µM [inhibitor, partial curve, poor fit].
`CCOc1cc(CNC(=O)c2cc(-c3ccc(Cl)s3)nc3ccccc23)ccc1OC` was tested, and the Potency was inconclusive: 28.2 µM [inhibitor, partial curve, poor fit].
In the case of `CCc1ccc(C2=CC(c3cccc(OC)c3OC)n3c(nc4ccccc43)N2)cc1` (stereo unspecified), the Potency is reported as inconclusive: 25.1 µM [inhibitor, partial curve, poor fit].
`COc1ccc(C(=O)Nc2ccc([C@H]3OCC(=O)N(CCN)[C@@H]3CO)cc2)cc1` was tested, and the Potency was inconclusive: 22.4 µM [inhibitor, partial curve, poor fit].
In the case of `COc1ccc(N2CC3CCC(C2)N3Cc2cccc(Cl)c2)cc1`, the Potency is reported as inconclusive: 70.8 µM [inhibitor, partial curve, poor fit].
In the case of `COc1cccc(Cn2c(=O)n(-c3cc(C)cc(C)c3)c(=O)c3oc4ccccc4c32)c1`, the Potency is reported as inconclusive: 28.2 µM [inhibitor, partial curve, poor fit].
In the case of `O=C(c1ccc(F)cc1)N1CCC(N2CCCCCC2=O)CC1`, the Potency is reported as “inactive”.
In the case of `FC(F)(F)c1cccc(C2=NOC3(CCCN(CC4CCCCC4)C3)C2)c1` (stereo unspecified), the Potency is reported as inconclusive: 39.8 µM [inhibitor, full curve].
In the case of `CCC(CC)C(=O)Nc1cccc(-c2cn3cccnc3n2)c1`, the Potency is reported as inconclusive: 25.1 µM [inhibitor, partial curve, poor fit].
In the case of `Cc1c(Cl)cccc1-c1ccc(C(=O)Nc2ccc3oc(-c4cccnc4)nc3c2)o1`, the Potency is reported as inconclusive: 31.6 µM [inhibitor, single point].
For `CN(C)c1cccc(Oc2nnnn2[C@H]2CO[C@H]3[C@@H]2OC[C@@H]3NC(=S)Nc2cccc(C#N)c2)c1`, the Potency was inconclusive: 25.1 µM [inhibitor, single point].
With `COCCCNc1oc(-c2ccc(COc3ccccc3C)o2)nc1C#N` the Potency was inconclusive: 25.1 µM [inhibitor, partial curve, poor fit].
For `Cc1ccc(Nc2n[nH]nc2C(=O)Nc2ccc(C)cc2Cl)cc1`, the “activity change, negative = inhibition” value was inactive: 9.14%.
For `Cc1cccc(Oc2ccc3c(c2)cc(C(=O)NCc2ccco2)n3C)c1`, the Potency was inconclusive: 25.1 µM [inhibitor, partial curve, poor fit].
With `CN1CCC(NC[C@H]2Cn3c(-c4ccc5c(c4)OCCO5)cnc3CO2)CC1` the Potency was inconclusive: 28.2 µM [inhibitor, partial curve, poor fit].
For `O=C(/C=C/c1ccc(-c2ccc(Cl)c(Cl)c2)o1)c1ccc(F)cc1`, the Potency was inconclusive: 25.1 µM [inhibitor, single point].
In the case of `COCC(=O)N1CCC2(CC1)CCN(Cc1cccs1)c1ccccc1O2`, the “activity change, negative = inhibition” value is reported as inactive: -0.783%.
With `CCCc1sc(C(=O)OCC(=O)NC(=O)NC2CC2)cc1CC` the “activity change, negative = inhibition” value was inactive: 5.38%.
In the case of `N#C/C(=C/c1cc(Br)cc(Br)c1O)c1nc2ccccc2[nH]1`, the Potency is reported as inconclusive: 25.1 µM [inhibitor, partial curve, poor fit].
For `Cc1cnc(CC2CCN(C(=O)Cc3cccnc3)CC2)n1Cc1ccc(F)cc1`, the “activity change, negative = inhibition” value was inactive: -3.19%.
In the case of `COc1ccc(CCNC(=O)c2cc(-c3ccc(C)cc3)nc3n[nH]c(-c4ccc(F)cc4)c23)cc1OC`, the Potency is reported as inconclusive: 3.55 µM [inhibitor, full curve, poor fit].
`Cc1ccc(-n2ncc3c(NCCc4ccccc4)ncnc32)cc1Cl` was tested, and the Potency was inconclusive: 31.6 µM [inhibitor, partial curve, poor fit].
With `CCC(=O)N1c2ccccc2CC1C(=O)NCCCN1CCN(c2ccc(F)cc2)CC1` (stereo unspecified) the activity change, negative = inhibition was inconclusive: -35.4% [inhibitor].
With `Cc1cccc(C(=O)n2nc(-c3ccco3)nc2NCc2ccccc2)c1` the Potency was inconclusive: 15.8 µM [inhibitor, single point].
With `CNCc1ccccc1OC(F)(F)F` the Potency was inconclusive: 112 µM [inhibitor, partial curve].
For `CCOC(=O)c1sc(-c2ccc3c(c2)OCO3)cc1NC(=O)c1cnccn1`, the “activity change, negative = inhibition” value was inactive: -15.7%.
With `CCc1noc(-c2nc(-c3ccc(OC)cc3OC)no2)n1` the Potency was inconclusive: 20 µM [inhibitor, partial curve].
For `COc1ccc(CNC(=O)CN(c2ccc(C(C)C)cc2)S(=O)(=O)c2c(C)n[nH]c2C)cc1`, the “activity change, negative = inhibition” value was inactive: 2.11%.
In the case of `COC[C@@H]1CN(C(=O)c2cc(C3CC3)[nH]n2)C[C@H]1c1ccccn1`, the Potency is reported as inconclusive: 3.16 µM [inhibitor, full curve, poor fit].
For `O=C(NC1CCc2ccccc21)c1ccc2ccccc2n1` (stereo unspecified), the “activity change, negative = inhibition” value was inactive: 1.52%.
In the case of `O=C(COCc1cc(-c2ccc3c(c2)OCO3)on1)Nc1cccc(O)c1`, the Potency is reported as inconclusive: 22.4 µM [inhibitor, single point].
With `O=C(O)c1cc(-c2ccc(Cl)c(Cl)c2)n(-c2ccccc2)n1` the “activity change, negative = inhibition” value was inactive: 38.6%.
For `[2H]C1=C([2H])C([2H])(CC(=C)C)[N+](C)(C)C([2H])(CC(=C)C)C1[2H]` (stereo unspecified), the “activity change, negative = inhibition” value was inactive: 16.8%.
With `COc1ccccc1CNc1nc2ccccc2nc1NS(=O)(=O)c1ccc(C)c(C)c1` the Potency was inconclusive: 35.5 µM [inhibitor, partial curve, poor fit].
With `Cc1noc(C)c1S(=O)(=O)N1CCCN(c2nc3ncccc3o2)CC1` the Potency was inconclusive: 31.6 µM [inhibitor, partial curve].
For `COc1cc(CN(C(=O)c2cccc(NC(C)=O)c2)C2CC2)ccc1OC(F)F`, the “activity change, negative = inhibition” value was inactive: 1.04%.
`Cc1cc(-c2cc(-c3ccc(F)cc3)nc3c(C)noc23)ccn1` was tested, and the “activity change, negative = inhibition” value was inactive: -21.6% [at 86.2 µM].
In the case of `O=C(Nc1cccc2ccccc12)O[C@@H]1CO[C@H]2[C@@H]1OC[C@@H]2Nc1nccc(-c2cccc(F)c2)n1`, the “activity change, negative = inhibition” value is reported as inactive: -29.2%.
For `c1ccc(-c2cc3c(cn2)CN(Cc2ccc4[nH]ccc4c2)CCN3)cc1`, the “activity change, negative = inhibition” value was inactive: -1.38% [at 86.2 µM].
For `O=C(Nc1ccc2c(N3CCCCC3)ncnc2c1)c1ccccc1C(F)(F)F`, the Potency was inconclusive: 22.4 µM [inhibitor, single point].
With `Cc1noc(C)c1CC(=O)N1CCCC2(C1)Nc1cccnc1NC2=NCc1ccccc1` (stereo unspecified) the Potency was active: 28.2 µM.
With `CCCCN1C=C(OC(=O)c2ccccc2OC)c2ccccc2S1(=O)=O` the “activity change, negative = inhibition” value was inactive: 12.9%.
For `O=[S+]1([O-])NC2(CCCN(Cc3c(F)cccc3F)C2)COc2ccccc21` (stereo unspecified), the “activity change, negative = inhibition” value was inactive: -3.41% [at 115 µM].
For `O=C(NC1CCCN(c2cc(-c3ccc(F)cc3)[nH]n2)C1)c1ccc2cc[nH]c2c1` (stereo unspecified), the Potency was inconclusive: 17.8 µM [inhibitor, partial curve].
`CCN(Cc1ccncc1)C(=O)CC1=C2CCCCC2N(C)C1=O` (stereo unspecified) was tested, and the Potency was inconclusive: 12.6 µM [inhibitor, partial curve, poor fit].
With `COc1ccc(-c2nc3cc(C)ccc3cc2CN2CCCC(C#N)C2)cc1OC` (stereo unspecified) the Potency was inconclusive: 22.4 µM [inhibitor, partial curve, poor fit].
In the case of `CC(C)NS(=O)(=O)c1cc(C(=O)O)cc(-n2cccn2)c1`, the Potency is reported as inconclusive: 12.6 µM [inhibitor, partial curve, poor fit].
`CCOC(=O)c1cnc2cc(Cl)c(OC)cc2c1Nc1ccc(Br)cc1C` was tested, and the Potency was inconclusive: 31.6 µM [inhibitor, partial curve, poor fit].
For `C#CCOc1c(Br)cc(C2C(C(=O)OC)=C(C)NC3=C2C(=O)c2ccccc23)cc1OCC` (stereo unspecified), the Potency was inconclusive: 2.82 µM [inhibitor, full curve, poor fit].
`O=C(CC1CCOCC1)N1CCN(c2ncccn2)CC1` was tested, and the Potency was inconclusive: 17.8 µM [inhibitor, single point].
`COc1ccc(-c2ccc3ncc(Nc4ccccc4OC)n3n2)cn1` was tested, and the “activity change, negative = inhibition” value was inactive: -4.16% [at 86.2 µM].
`CC(C)c1ccc(-c2cc(C3CC3)nc(N)c2C#N)cc1` was tested, and the Potency was inconclusive: 39.8 µM [inhibitor, single point].
In the case of `COc1ccc(OC)c(NC(=O)c2cc(=O)[nH]c3ccccc23)c1`, the “activity change, negative = inhibition” value is reported as inactive: 5.62%.
For `Cc1ccc(-c2nc(C#N)c(N3CCOCC3)o2)cc1`, the Potency was inconclusive: 20 µM [inhibitor, partial curve, poor fit].
For `Cc1cc(-c2ccccc2)nc2cc(C(=O)Nc3ccc(Cl)c(Cl)c3)nn12`, the Potency was inconclusive: 1.78 µM [inhibitor, partial curve, poor fit].
In the case of `COc1ccccc1Oc1coc2cc(OC(=O)c3ccc(F)cc3)ccc2c1=O`, the “activity change, negative = inhibition” value is reported as inactive: -3.11%.
For `COc1cc(C(=O)Oc2c(OC)cccc2OC)ccc1OC(F)F`, the “activity change, negative = inhibition” value was inactive: -5.55%.
`COc1ccc2ncc3c(-c4ccccc4)nn(-c4ccc(C)c(C)c4)c3c2c1` was tested, and the Potency was inconclusive: 1.41 µM [inhibitor, partial curve, poor fit].
`COc1ncccc1-c1nccn2c(C3CN(Cc4c[nH]c5ccccc45)C3)ncc12` was tested, and the Potency was inconclusive: 35.5 µM [inhibitor, partial curve, poor fit].
For `O=C(CCn1cncn1)N(CC1CCN(Cc2ccccc2F)CC1)CC1CCCO1` (stereo unspecified), the “activity change, negative = inhibition” value was inactive: 48.9%.
For `CC(C)c1cnc2c(c1SCC(=O)c1ccc(Cl)cc1)c(=O)n(C)c(=O)n2C`, the Potency was inconclusive: 3.16 µM [inhibitor, partial curve, poor fit].
For `COc1cccc(N=Cc2ccc(N(C)C)cc2)c1`, the Potency was inconclusive: 25.1 µM [inhibitor, partial curve, poor fit].
With `CCOC(=O)c1[nH]c2ccc(OC)cc2c1NC(=O)CCN1CCC(C(=O)OCC)CC1` the Potency was inconclusive: 25.1 µM [inhibitor, partial curve, poor fit].
In the case of `CCc1noc(-c2ccn3c(CNC(=O)c4ccco4)nnc3c2)n1`, the Potency is reported as active: 28.2 µM.
Also: nearly all actives have a fitted effect of over 70% in size.
For activity change, negative = inhibition in this document: 0% is about no effect.
Potency is read from the fitted curve at half-maximal effect; tags tell the direction and shape of the fitted curve.
